For 56 variants, self-cleavage results are on record in the RNAGym collection of RNA variant scans (doi:10.7554/elife.90254).

To fix the notation:
B1: LINE1-mini (parent)
chain: GGCAGAGCUCAACACAGCGUGGCAAAGUGGCUGUGGCUAGACUGCC

The source gives no read counts; variants with many changes may rest on few reads.

Variants of B1 are the subject of the series. The experiment in a line: self-cleavage, relative activity (ratio to wild type); higher = more cleavage; in vitro, sequencing; the parent is a self-cleaving ribozyme.
For GUCAGAGCUCAACACAGAGUGGCAAAGUGGCUGACGCUAGACUGCC, the self-cleavage worked out at 0.
In the case of GUCAGAGCUCAACAAAGCGUGGCAAAUUGGCUGUGGCUAGAUUGCC it was 0.01; in that of GUCAGAGCUCAACACAGAGUGGCGAAGUGGCUGUGGCUAGACUGCC, 0.01.
In the case of GUCAGAGCUCAACACAGAGUGGCUAAGUGGCUGUGGCUAGACUGCC it was 0.01.
In the case of GUCAGAGCUCAACACAGUGUGGCAAGGUGGCUAUGGCUAUACUGCC it was 0.05; in that of GUCAGAGCUCAACACAGUGUGGCAAAGUGGCUGUGGCAAGAAUGCC, 0.
Consider GUCAGAGCUCAACACAGAGUGGCAAAGUGGCUGUUGCUAGACUGCC, for which the self-cleavage worked out at 0.01.
GUCAGAGCUCAACAAAGCGUGGCAAAGUGGCUGUGGCUAAACUGCC: the self-cleavage was determined as 0.01.
As to GUCAGAGCUCAACACAGUGUUGCAAAGUGGCUGUGGCCAGACUGCC, the self-cleavage was determined as 0.02.
For GUCAGAGCUCAACAAAGCUUGGCAAAGUGGCUGCGGCUAGACUUCC, the self-cleavage worked out at 0.02.
The same measure for GUCAGAGCUCAACACAGAGUCGCAAAGUGGUUGUGGCUAGACUGCC: 0.02; for GUCAGAGCUCAAUACAGCGUGGCAAAGUGGCUGUGGCUUGAGUUCC: 0.04.
In the case of GUCAGAGCUCAACAUAGCGUGGAAAAGUGGCUGUGUCUAGACUGCA it was 0.05.
The same measure for GUCAGAGCUCAACACAGUGUGGCACAGUGGCUGUGGCUAGGCUGCC: 0.04; for GUCAGAGCUCAACACAGAGUGGCAAAGUGGCUGUGGCUAGAAUGCC: 0.01; for GUCAGAGCUCAACACAGUGUGGUAAAGUGGCUGUGGCUAGACUGCC: 0.07.
Turning to GUCAGAGCUCAACACAGGGUGGCAUAGUUGCUGUGGCUAGACUGCC, the self-cleavage was 0.01.
In the case of GUCAGAGCUCAACACAGUGUGGCAAAGUGGCUGUGGCUUGACUGCC it was 0.04; in that of GUCAGAGCUCAACAGAGCGUGGCAAAGUGGCCGUAGCUAGACUGCC, 0.
Take GUCAGAGCUCAACAGAGCGUGGCAAAGUGGCUGUGGCUAGACUGGC: the self-cleavage came out at 0.01.
The same measure for GUCAGAGCUCAACAAAUCCUGGGAAAGUGGCUGUGGCUAGACUGCC: 0; for GUCAGAGCUCAACACAGAGUGGCAAAGUGGCUGUGGCGGGAAUGCC: 0.02; for GUCAGAGCUCAACAUAGCGUGGUAAAGCGGCUGUGGCUAGACUGGC: 0.08.
As to GUCAGAGCUCAAUACAGCGUGGCAAAGUGGCUUUGGCUCAACUGCC, the self-cleavage was 0.02.
In the case of GUCAGAGCUCAACAAUGCGUGGCAAAGUGGCUUUGGUUAGACUGCC it was 0.03; in that of GUCAGAGCUCAACACAGUGUGUCAAAGGGGCUGUGGUUAGACUGCG, 0.05; in that of GUCAGAGCUCAACAGAGCGUGGCGAAGUGGCUGUGGCUAGACUGCC, 0.02.
In the case of GUCAGAGCUCAACACAGGGUGGCAAAGUGGCCGUGGCUAGACUUCC it was 0; in that of GUCAGAGCUCAACACAGUGUGGCAAAGAGGGUGUGGCUAGACUGCC, 0.02.
As to GUCAGAGCUCAACACAGUGUGGCAAAGUAGCUGUGGCUAGACUGAC, the self-cleavage came to 1.21.
With GUCAGAGCUCAACAUAGCGUGGCAAAGUGUCUGUGGCUAGACUGCC, the self-cleavage worked out at 0.02.
In the case of GUCAGAGCUCAACACAGGGAGGCAAAGUGGCUGUGGCUAGACUGCC it was 0.01.
In the case of GUCAGAGCUCAACAUAACGUGGCAAAGUGGCUGUCGCUAGACUCCC it was 0.01; in that of GUCAGAGCUCAACAAAGCGUGGCCAAUUGGCUGUGGCUAGACUGCC, 0; in that of GUCAGAGCUCAAUACAGCGUGGCAAAGUGGCUGUGCCUAGACUGCC, 0.01.
With GUCAGAGCUCAACACAGGGUGGCAAUGUGGCUGCGGCUAGACUGCA, the self-cleavage was found to be 0.03.
Take GUCAGAGCUCAACACAGCGUGGAAAAGUGGUUGUGGCUAGACUGCC: the self-cleavage was found to be 0.03.
In the case of GUCAGAGCUCAACAGAGCGUGGUAAAGUGGCUGUGUCUAGACUGCC, the self-cleavage is 0.01.
In the case of GUCAGAGCUCAACAGAGCGUGGUAAAGUGGCUGUGGCUAGACUGCC it was 0.01.
In the case of GUCAGAGCUCAACAAAGAGUGGCAAAGUGGCUCUGGCUAGACUGCC it was 0.01.
The same measure for GUCAGAGCUCAACACAGAGUGGCAAAGAGGCUGUGGCUAGACUGCC: 0.02; for GUCAGAGCUCAAUACAGCGUGGCAAAGUGGAUGUGACUAGACUGCC: 0.02.
For the variant GUCAGAGCUCAACAAAUCGUGGCAUACUGGCUGUGGCUAGACUGCC, the self-cleavage worked out at 0.01.
As to GUCAGAGCUCAACACAGCGUGGACAAGUGGCUGUGGCUAGACUGCC, the self-cleavage was determined as 0.04.
The same measure for GUCAGAGCUCAACAUAGCGUUGCAAAGUGGCUGUGGCUAGACUGCC: 0.
In the case of GUCAGAGCUCAACAAAGCCUGGUAAAGUGGCUGUGGCUAGACUGCC it was 0.05.
In the case of GUCAGAGCUCAACACAGAGUGGCAAAGUGGCUGGGGAUAGACUGCC it was 0.06; in that of GUCAGAGCUCAACAAAGCGUGGCAAAGUGGCUGUAGCUAGACUGCC, 0.06; in that of GUCAGAGCUCAACAGAGCUUGGCAAAGUGGCUGUGGCUAGACUGCC, 0.01.
For the variant GUCAGAGCUCAACAAAGCGUGGCACAUUGGCUGUGGCUAGACUGCC, the self-cleavage is 0.05.
Regarding GUCAGAGCUCAAUAUAGCGUGGCAAAGUGGCUAUGGCUAGACUGCC, the self-cleavage was 0.14.
In the case of GUCAGAGCUCAACACAGACUGGCAAAUUGGAGGUGGCUAGACUGCC it was 0.07; in that of GUCAGAGCUCAAUACAGCAUGGCAAAGUGGCUGUGGCUAGACUGCC, 0.07; in that of GUCAGAGCUCAACACAGUGUGGCAAAGUGGCUGUGGCUAGAAUGCC, 0.01.
As to GUCAGAGCUCAACAUAGCGUGGCAAAGUGGCUGUGGCUAGACUGCA, the self-cleavage amounted to 0.08.
The same measure for GUCAGAGCUCAACAUAGCGUGGCAAAGUCGCUGUGGCUAGACUGCC: 0.09.
